From publication PMC4336329 (PLoS ONE, 2015)
In all, about 310,000 compounds went through this assay and about 2,200 (0.71%) showed an effect of 50% or more. The effect is printed as a negative number. This is one part of the list.

target: human ether-à-go-go-related gene (hERG) potassium channel (human, UniProt Q12809); assay: primary screen, population patch clamp on CHO cells stably expressing hERG
Sequence (Q12809 whole entry, looked up): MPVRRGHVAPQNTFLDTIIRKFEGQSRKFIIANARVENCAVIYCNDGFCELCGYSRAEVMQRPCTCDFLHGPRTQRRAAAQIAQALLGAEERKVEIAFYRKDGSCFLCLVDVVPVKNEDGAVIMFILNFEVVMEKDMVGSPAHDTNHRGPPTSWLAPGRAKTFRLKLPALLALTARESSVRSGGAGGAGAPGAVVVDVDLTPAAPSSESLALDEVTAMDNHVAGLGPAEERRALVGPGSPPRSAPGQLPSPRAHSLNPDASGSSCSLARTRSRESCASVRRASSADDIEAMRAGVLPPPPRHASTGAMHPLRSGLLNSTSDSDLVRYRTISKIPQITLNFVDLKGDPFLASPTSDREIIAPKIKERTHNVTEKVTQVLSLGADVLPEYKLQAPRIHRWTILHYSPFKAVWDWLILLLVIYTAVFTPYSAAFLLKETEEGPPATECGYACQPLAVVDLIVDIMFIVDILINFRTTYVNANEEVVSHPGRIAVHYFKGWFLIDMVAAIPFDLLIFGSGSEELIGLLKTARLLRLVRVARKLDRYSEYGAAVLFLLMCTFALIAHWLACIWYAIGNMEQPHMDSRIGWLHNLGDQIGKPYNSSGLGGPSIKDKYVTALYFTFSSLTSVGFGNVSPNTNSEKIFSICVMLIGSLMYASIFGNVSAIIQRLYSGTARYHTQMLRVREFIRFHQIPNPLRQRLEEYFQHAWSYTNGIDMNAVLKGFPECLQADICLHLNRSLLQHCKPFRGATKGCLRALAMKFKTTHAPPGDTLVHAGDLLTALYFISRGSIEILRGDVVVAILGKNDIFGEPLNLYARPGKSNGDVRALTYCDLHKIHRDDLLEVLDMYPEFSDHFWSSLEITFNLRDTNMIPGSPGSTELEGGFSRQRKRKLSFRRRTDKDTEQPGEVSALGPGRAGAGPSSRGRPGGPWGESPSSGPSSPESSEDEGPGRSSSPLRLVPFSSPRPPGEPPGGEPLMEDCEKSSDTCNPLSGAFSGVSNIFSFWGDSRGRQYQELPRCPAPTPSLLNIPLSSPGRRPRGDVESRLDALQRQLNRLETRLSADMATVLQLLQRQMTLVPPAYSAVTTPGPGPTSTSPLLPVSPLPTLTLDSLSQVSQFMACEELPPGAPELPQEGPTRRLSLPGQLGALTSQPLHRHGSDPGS

SMILES	hERG current change (%, negative = inhibition) at 1uM [%]
COc1ccc(C2CC(c3ccc(C)cc3)Nc3ncnn32)cc1 (stereo not drawn)	-7.15
O=C(NCc1ccccc1)C1CCCN(c2cnccn2)C1 (stereo not drawn)	-4.4
O=C(Nc1ccc(Oc2ncnc3cc(Cl)ccc23)nc1)c1ccc(F)cc1	9.13
COc1cc(C)nc(Oc2ccc(OCCOc3ccccc3)nn2)n1	6.89
O=C(COC(=O)CNC(=O)c1ccccc1F)NCCNC(=O)COC(=O)CNC(=O)c1ccccc1F	15.7
Cc1cc(C)n(CC(O)COCc2ccco2)n1 (stereo not drawn)	0.458
COc1ccc(NC(=O)C(=O)NCCN2CCN(C(=O)c3ccc(C(C)(C)C)cc3)CC2)cc1	9.9
O=C(COC(=O)c1ccccc1)Nc1cc(S(=O)(=O)N2CCCCCC2)ccc1Cl	11.6
COc1cccc(-c2nnc(-c3ccc(C(F)(F)F)cc3)o2)c1	4.96
Cn1nc(-c2ccccc2)cc1NC(=O)Nc1ccc(F)cc1	16.4
CC(=O)N1c2ccc(S(=O)(=O)NCCc3ccc(S(N)(=O)=O)cc3)cc2CC1C (stereo not drawn)	17.6
Cc1cc(C)c(C#N)c(SCc2ccc([N+](=O)[O-])cc2)n1	13
CN1/C(=C\C=N\NC(=O)c2ccccc2Br)C(C)(C)c2ccccc21	9.05
COc1ccc(Cl)cc1C(=O)O/N=C(\N)c1ccc(Cl)cc1	1.24
O=C(Nc1ccccc1)OC1CCS(=O)(=O)C1 (stereo not drawn)	13.2
Cc1ccc(S(=O)(=O)Nc2cccc(C(=O)N3CCOCC3)c2)c(C)c1NS(C)(=O)=O	19.5
CC(/C=N/NC(=O)c1ccc(Cn2cc([N+](=O)[O-])cn2)o1)=C\c1ccccc1	4.13
Cc1ccc(S(=O)(=O)N2CCN(Cc3ccccc3)CC2)s1	8.25
Cc1ccnc(NC(=O)c2cccc(S(=O)(=O)N3CCCC3)c2)c1	9.19
Cc1cccc(-n2c(SCC(=O)NCc3ccco3)nc3ccccc3c2=O)c1	-9.79
Nc1c(Br)cc(Br)c(N2CCCC2=O)c1Br	6.06
CC(CCc1ccccc1)NC(=O)CCC(=O)N1CCC(C(=O)O)CC1 (stereo not drawn)	16

SMILES	hERG current change (%, negative = inhibition) at 1uM [%]
CC(=O)c1cn(C)c(=O)n(C)c1=O	4.54
Cc1cc(N2C(=O)CC(C(C)c3ccccc3)C2=O)no1 (stereo not drawn)	6.37
O=C(CCc1ccccc1)NCC1(c2ccccc2)CCCC1	11.5
O=C(CSc1nccn1-c1ccc(Cl)cc1)NCc1ccc2c(c1)OCO2	-3.09
COc1ccccc1N1CCN(C(c2cccs2)C(C)NC(=O)c2cccnc2)CC1 (stereo not drawn)	-2.84
CC(=O)Nc1ccc(S(=O)(=O)C(C#N)c2nc3ccccc3nc2NCCCO)cc1 (stereo not drawn)	0.636
Cl.O=C(NCC(c1cccs1)N1CCOCC1)c1cc2ccccc2o1 (stereo not drawn)	-1.18
COc1cc2c(cc1OC)CN(CC(=O)Nc1ccc(F)cc1)C(C(=O)O)C2 (stereo not drawn)	12.8
COC(=O)[C@H](C)NC(=O)Nc1ccc(S(N)(=O)=O)cc1	12.6
CCN(CC)CCN1C(=O)C(=O)/C(=C(/O)c2cnn(-c3ccccc3)c2C)C1c1cccnc1 (stereo not drawn)	19.7
CC(C)OC(=O)c1ccc(NC(=O)c2cncc(Br)c2)cc1	-0.654
COc1ccc(S(=O)(=O)N(n2c(C)nnc2-n2nc(C)cc2C)S(=O)(=O)c2ccc(OC)cc2)cc1	18.6
CCCCn1nnnc1NCc1cccnc1	5.42
COC(=O)c1cc(S(=O)(=O)NC2CCN(Cc3ccccc3)CC2)cn1C	11.2
Cc1cc(C(=O)OCC(=O)NCc2ccc(F)cc2)c2ccccc2n1	6.51
FC(F)(F)C(F)(F)c1nnc2ccc(-n3ccnc3)nn12	3.17
CN(C)/C=C/C(=O)c1nn(-c2ccc(F)cc2)ccc1=O	10.8
COc1ccccc1NS(=O)(=O)c1cc(C(=O)NCC2CCCO2)ccc1C (stereo not drawn)	-6.88
COc1cccc(/C=C2\CCC(C3CCCC3)C2=O)c1OC (stereo not drawn)	14.5
COc1ccc(N(C(=O)c2ccco2)C(C(=O)NC2CCCC2)c2ccc(N3CCOCC3)cc2)c(OC)c1 (stereo not drawn)	0.946
CCOc1ccc(-n2c(=S)sc3c(=O)n(-c4ccccc4)c(SCC(=O)O)nc32)cc1	12.2
Oc1ccccc1/C=N/n1cnn(Cc2ccccc2Cl)c1=S	10.8

SMILES	hERG current change (%, negative = inhibition) at 1uM [%]
C=CCNC(=O)c1onc(CSc2ccc(F)c(F)c2)c1C(=O)NCC=C	1.57
CC(C)c1nc2n[nH]c(N)c2c2c1CCCC2	11.4
Cc1cc(=O)oc2cc(NC(=O)Cc3ccccc3)ccc12	15.3
CSc1nc2ccc(NC(=O)c3ccc(=O)n(C)n3)cc2s1	11.6
O=C(CCc1nc2sc3c(c2c(=O)[nH]1)CCCC3)NCCOc1ccccc1	-0.368
COCCNC(=O)CN(C(=O)CCC(=O)Nc1ccccn1)c1ccccc1OC	9.94
N#Cc1c(N)nc2c(c1-c1cccnc1)CCCCC2	-4.85
Cc1ccc(Sc2ncccc2COC(=O)Nc2ccccc2)cc1	11.7
Cc1ccc(-n2c(O)c(C=NC3CCCC3)c(=O)[nH]c2=O)c(C)c1	15.2
O=C(c1ccc(Cn2cnnn2)cc1)N1CCCC(Nc2ccc(F)cc2)C1 (stereo not drawn)	3.86
CCc1ccc(N2C(=O)c3ccc4c5c(ccc(c35)C2=O)CC4)cc1	-1.11
COc1ccc(NC(=O)CSc2nnc(Cn3c(=O)sc4ccccc43)n2C)cc1	0.985
COc1ccccc1S(=O)(=O)Cc1ccc(C(=O)NCc2cccnc2)o1	6.11
O=C(NC(=S)Nc1ccccn1)c1ccccc1	12.8
Cc1cccc(C(=O)Nc2ccc(C(=O)N/N=C/c3ccco3)cc2)c1	7.52
Cc1cc(C(=O)NCC(=O)OCC(=O)Nc2ccc(OC(F)F)cc2)ccc1[N+](=O)[O-]	-19.9
Br.COc1ccccc1N1CCN(CCCCN2C(=O)c3ccccc3C2=O)CC1	-26.7
C=CCNC(=O)C1CC(=O)N(c2ccc(OCc3ccccc3Cl)cc2)C1 (stereo not drawn)	13.4
COc1ccc([N+](=O)[O-])cc1NS(=O)(=O)c1cccc(C(=O)O)c1	13.8
COc1ccc(OC)c(NC(=O)Nc2cccnc2)c1	13.6
FC(F)(F)c1ccnc(Oc2ccc(C3=NCCS3)cc2)c1	13.4
O=C(CSc1nnc(-c2cccnc2)o1)Nc1cccc(Cl)c1	14.4

SMILES	hERG current change (%, negative = inhibition) at 1uM [%]
Oc1ccc(N=Nc2ccc3ccccc3c2)cc1	15.3
O=C1CCC(C(=O)N2CCN(c3ccccc3Cl)CC2)CN1CC1CCCCC1 (stereo not drawn)	7.35
CC1CC(CC(=O)Nc2nc(-c3ccccc3)cs2)C(=O)O1 (stereo not drawn)	16.1
[O-][n+]1c2c(c3c4non(O)c4ccc31)CCCC2	12.6
Cc1ccc(S(=O)(=O)N2CCCC2C(=O)N2CCCCCC2)cc1 (stereo not drawn)	-7.28
Cc1ccc(C)c2sc(NC(=O)c3ccc(N4CCCCC4)c([N+](=O)[O-])c3)nc12	12.4
COc1cc(CNC2CCCCCCC2)cc(Cl)c1OC.Cl	12.6
O=S(=O)(c1ccccc1)c1nc(-c2ccccc2)oc1N1CCCC1	1.47
Cc1cnccc1CN(C)C(=O)CC1C(=O)NCCN1CC1CCCCC1 (stereo not drawn)	4.81
CC(C)c1ccc2[nH]c3c(c2c1)CCCC3=O	6.51
COc1ccc(C(C(=O)NC(C)(C)C)N(CCO)C(=O)CCC(=O)Nc2cc(C)on2)cc1 (stereo not drawn)	13.6
Cc1nnc(N2CCCC(C(=O)NCc3cccc(F)c3)C2)c2nn(-c3ccccc3)c(C)c12 (stereo not drawn)	-1.8
Cc1cc(NC(=O)CSc2nc3ccccc3c(=O)n2-c2ccccc2)no1	4.19
Cc1ccccc1-n1c(=O)c2ccccc2n2cnnc12	-6.44
Cc1ccc(S(=O)(=O)N2CCC(C(=O)N3CCC[C@H]3C(=O)NCc3ccco3)CC2)cc1	-5.93
CCc1ccc(C(=O)NN=C2CCCCCC2)s1	14.8
CCN1C(=O)[C@@H]2[C@@H](c3ccc(-c4ccc(OC)cc4)cc3)N3CCC[C@@]3(C(=O)OC)[C@@H]2C1=O.O=C(O)C(F)(F)F	4.57
CCOC(=O)N1CCC(NC(=O)c2ccc(Cl)cc2)CC1	9.62
Cc1ccc(C2C3=C(CCCC3=O)OC3=C2C(=O)CCC3)cc1	0.776
COc1ccc(CCNC(=O)c2cc(=O)[nH]c3ccc(Br)cc23)cc1OC	16.1
CCc1nc2ccccc2c(C(=O)OCC(=O)Nc2cccc(S(=O)(=O)N3CCOCC3)c2)c1C	7.53
